Measured values from a collection of fitness landscapes (doi:10.1016/j.celrep.2020.107928).
Over roughly 81,000 sequences, “one-hybrid fitness for binding NBS DNA” has its median near -0.1; the highest 2% begin near 0.36. The list shows a part of the results.

B1: Caulobacter ParB omega fusion; a variant is named by its letters at X, in order, B8GW30 (parent)
chain: MESVVVGEPGMSEGRRGLGRGLSALLGEVDAAPAQAPGEQLGGSREAPIEILQRNPDQPRRTFREEDLEDLSNSIREKGVLQPILVRPSPDTAGEYQIVAGERAWRAAQRAGLKTVPIMVRELDDLAVLEIGIIENVQRADLNVLEEALSYKVLMEKFERTQENIAQTIGKSXSHVANXMRLLXLPDEVQSYLVSGELTAXHARAIAAAADPVALAKQIIEGGLSVRETEALARKAPNLSAGKSKGGRPPRVKDTDTQALESDLSSVLGLDVSIDHRGSTGTLTITYATLEQLDDLCNRLTRGI

Variants of: B1
Assay: one-hybrid fitness for binding NBS DNA (the Noc-binding site; scaled: cognate 1, non-cognate 0); higher = stronger binding
Conditions: with NBS DNA site
In short: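 Fitness is the rescaled log change in variant-to-wild-type read ratio, measured by Illumina sequencing of plasmids before and after bacterial one-hybrid selection. The scale puts cognate at 1 and non-cognate at 0. Selection of Caulobacter ParB libraries, four specificity codons randomised, took place in E. coli USO with a HIS3 reporter, site 19 bp from the promoter, over 48 hours at 37°C on M9-minus-histidine with 0.1 mM IPTG and 5 mM 3-AT.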

Row | Variant | one-hybrid fitness for binding NBS DNA
1 | VNSL | ≤ 0.2
2 | QSIY | ≤ 0.2
3 | WPCT | ≤ 0.2
4 | HQDG | ≤ 0.2
5 | HHVL | ≤ 0.2
6 | QAMI | ≤ 0.2
7 | SASC | ≤ 0.2
8 | PVWG | ≤ 0.2
9 | DTLE | ≤ 0.2
10 | RSEW | ≤ 0.2
11 | PPIK | ≤ 0.2
12 | DRMT | ≤ 0.2
13 | PDFD | ≤ 0.2
14 | HFID | ≤ 0.2
15 | IYLG | ≤ 0.2
16 | RPKG | ≤ 0.2
17 | CFAL | ≤ 0.2
18 | MNPV | ≤ 0.2
19 | RKQC | 0.22
20 | QITH | ≤ 0.2
21 | TWRT | ≤ 0.2
22 | QRIW | ≤ 0.2
23 | TWPM | ≤ 0.2
24 | YDSP | ≤ 0.2
25 | YLCG | ≤ 0.2
26 | RYGF | ≤ 0.2

Row | Variant | one-hybrid fitness for binding NBS DNA
27 | QSCQ | ≤ 0.2
28 | PINI | ≤ 0.2
29 | QFNR | 0.268
30 | GIDC | ≤ 0.2
31 | PRYP | ≤ 0.2
32 | SEYR | ≤ 0.2
33 | SVDD | ≤ 0.2
34 | PAWR | ≤ 0.2
35 | AKQI | ≤ 0.2
36 | RMVK | ≤ 0.2
37 | CCRC | ≤ 0.2
38 | ILTQ | ≤ 0.2
39 | SHVC | ≤ 0.2
40 | QQKM | 0.476
41 | TLEH | ≤ 0.2
42 | LPNA | ≤ 0.2
43 | HRCT | ≤ 0.2
44 | IEWG | ≤ 0.2
45 | CKIR | ≤ 0.2
46 | SCVT | ≤ 0.2
47 | LCKD | ≤ 0.2
48 | VPVA | ≤ 0.2
49 | TNGL | ≤ 0.2
50 | KTEL | ≤ 0.2
51 | TSAW | ≤ 0.2
52 | AKTR | ≤ 0.2

Row | Variant | one-hybrid fitness for binding NBS DNA
53 | MARE | ≤ 0.2
54 | TPVT | 0.375
55 | PWRV | ≤ 0.2
56 | TGIT | ≤ 0.2
57 | TMRT | ≤ 0.2
58 | KVAS | ≤ 0.2
59 | RHFA | ≤ 0.2
60 | LYTG | ≤ 0.2
61 | RMVA | ≤ 0.2
62 | TANY | ≤ 0.2
63 | RRDA | 0.463
64 | PFTA | ≤ 0.2
65 | VTAT | ≤ 0.2
66 | RGFR | ≤ 0.2
67 | SGEV | ≤ 0.2
68 | IDHS | ≤ 0.2
69 | SHLV | ≤ 0.2
70 | TTAF | ≤ 0.2
71 | NMRC | ≤ 0.2
72 | NLMY | ≤ 0.2
73 | RWMF | ≤ 0.2
74 | EVKY | ≤ 0.2
75 | RFHV | ≤ 0.2
76 | RDKG | ≤ 0.2
77 | YPPC | ≤ 0.2
